Hit rate of the full screen: of about 350,000 compounds, about 31,000 (8.9%) were called active. The shares of active, inactive and inconclusive entries below differ from those in the screen. Calls follow the shape of the dose curve; as a rule, active = well fitted inhibition curve with a large enough effect; inconclusive = small, poorly fitted or top-dose-only effect; inactive = no such curve, though single readings can be large or run the other way. Where the call is inconclusive, the potency comes from a doubtful curve fit.
biological target: Histone-lysine N-methyltransferase EHMT2 (Homo sapiens) (UniProt Q96KQ7); test: qHTS Assay for Inhibitors of Histone Lysine Methyltransferase G9a; details: G9a H3K9 monomethylation, AlphaScreen, 2 h; activity, negative = inhibition: at 59 µM (top of the series) unless noted; also: nearly all actives have a fitted effect of over 75% in size
Summary of the method: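 Step 1: enzyme (final 20 nM) with compound, 15 min RT. Step 2: substrate peptide 500 nM and SAM 20 uM, 2 h RT. Step 3: anti-H3K9me1 antibody and AlphaScreen beads, 10 min, then plate read.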
% is scaled to controls: 0 for no effect and ±100 for the full control effect; potency is read from the fitted curve at half-maximal effect; tags tell the direction and shape of the fitted curve.

UniProt Q96KQ7, sequence (Q96KQ7 whole entry, looked up): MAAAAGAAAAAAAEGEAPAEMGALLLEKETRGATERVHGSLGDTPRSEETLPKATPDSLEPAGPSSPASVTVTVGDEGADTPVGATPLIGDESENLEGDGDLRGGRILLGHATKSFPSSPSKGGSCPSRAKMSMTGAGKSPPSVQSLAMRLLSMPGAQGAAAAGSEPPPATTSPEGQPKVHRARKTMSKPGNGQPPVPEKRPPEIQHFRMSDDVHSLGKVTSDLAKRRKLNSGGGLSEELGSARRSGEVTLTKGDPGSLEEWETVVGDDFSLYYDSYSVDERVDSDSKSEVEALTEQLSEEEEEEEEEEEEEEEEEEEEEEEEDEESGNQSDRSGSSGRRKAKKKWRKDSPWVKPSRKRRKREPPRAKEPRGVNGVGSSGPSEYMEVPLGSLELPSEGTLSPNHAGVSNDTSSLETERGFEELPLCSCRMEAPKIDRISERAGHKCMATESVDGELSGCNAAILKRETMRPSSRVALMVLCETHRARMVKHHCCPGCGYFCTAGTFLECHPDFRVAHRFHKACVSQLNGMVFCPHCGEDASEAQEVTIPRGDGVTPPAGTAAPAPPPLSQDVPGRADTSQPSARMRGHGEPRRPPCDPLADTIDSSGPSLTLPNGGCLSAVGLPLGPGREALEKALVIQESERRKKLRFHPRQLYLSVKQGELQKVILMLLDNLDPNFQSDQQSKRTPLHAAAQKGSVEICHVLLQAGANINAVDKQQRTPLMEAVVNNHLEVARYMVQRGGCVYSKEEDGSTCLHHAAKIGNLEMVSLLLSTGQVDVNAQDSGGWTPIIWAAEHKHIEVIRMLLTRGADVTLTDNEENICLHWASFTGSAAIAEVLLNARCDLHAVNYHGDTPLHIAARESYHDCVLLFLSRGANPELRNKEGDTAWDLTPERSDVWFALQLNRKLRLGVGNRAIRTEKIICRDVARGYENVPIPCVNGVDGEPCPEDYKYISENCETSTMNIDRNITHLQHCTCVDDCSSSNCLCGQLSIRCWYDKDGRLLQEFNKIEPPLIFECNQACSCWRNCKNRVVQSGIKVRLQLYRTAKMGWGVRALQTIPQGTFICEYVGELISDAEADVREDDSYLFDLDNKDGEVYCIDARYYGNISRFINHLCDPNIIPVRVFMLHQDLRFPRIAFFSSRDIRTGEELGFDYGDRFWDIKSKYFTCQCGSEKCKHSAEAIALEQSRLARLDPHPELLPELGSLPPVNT

Compound | Potency | activity, negative = inhibition
COc1ccc(OC)c(N2C(=O)C(Cl)=C(N3CCOCC3)C2=O)c1 | inactive | –
C/C(=N\Nc1nc2ccccc2[nH]1)c1ccc2c(c1)OCCO2 | inconclusive: 44.7 µM [inhibitor, partial curve, poor fit] | –
COc1cccc(NC(=O)CCN2CCN(C)CC2)c1 | – | inconclusive: -63% [inhibitor]
Cc1cc(C)c2cccc(NC(=S)NC(=O)c3ccccc3)c2n1 | inconclusive: 0.126 µM [inhibitor, full curve, poor fit] | –
CCOC(=O)Cc1csc(NC(=O)CSc2nc(C)cc(=O)[nH]2)n1 | inconclusive: 3.98 µM [inhibitor, single point] | –
COCCNC(=O)CSc1c(C)cnc2c1c(=O)n(C)c(=O)n2C | inconclusive: 7.94 µM [inhibitor, partial curve] | –
S=C(Nc1ccc(Br)cc1Cl)N1CCCC1 | inactive | –
COc1ccc(C(=O)NCC(=O)OCC(=O)N2CC(C)CC(C)C2)cc1 (stereo not given) | inconclusive: 79.4 µM [inhibitor, single point] | –
OCC1(CCCc2ccccc2)CCN(Cc2cc(F)ccc2F)CC1 | inactive | –
CCOC(=O)Cc1csc(NC(=O)CSc2nc3cccnc3n2CC)n1 | inconclusive: 50.1 µM [inhibitor, partial curve] | –
Cc1cc(NC(=O)C2CC(c3c(F)cccc3Cl)=NO2)n(-c2ccccc2)n1 (stereo not given) | inconclusive: 89.1 µM [inhibitor, single point] | –
COc1ccccc1NC(=O)/C=C/c1ccc2c(c1)OCO2 | inactive | –
CC(C)CCN1C(=O)CC(NNC(=O)c2ccc(S(=O)(=O)N3CCCC3)cc2)C1=O (stereo not given) | inconclusive: 44.7 µM [inhibitor, partial curve] | –
CN(Cc1ccccc1)C(=O)COC(=O)C1=NNC(=O)CC1 | inconclusive: 12.6 µM [inhibitor, partial curve, poor fit] | –
CCc1nc(C)ccc1OC(=O)C12CC3CC(CC(C3)C1)C2 | inactive | –
O=C(COc1ccccc1F)Nc1ccc(S(=O)(=O)N2CCCC2)cc1 | inconclusive: 6.31 µM [inhibitor, single point] | –
Cc1ccc(-n2c(=O)c3ccc(C(=O)NCc4ccco4)cc3n(Cc3ccccc3Cl)c2=O)cc1 | active: 1.58 µM | –
CCOc1ccc(C(NC(=O)CC)c2c(O)ccc3ccccc23)cc1 (stereo not given) | inconclusive: 89.1 µM [inhibitor, single point] | –
O=C(c1ccc2c(c1)OCO2)[C@@H]1[C@@H]2C(=O)N(C3CCCCC3)C(=O)[C@@H]2C2c3ccccc3C=CN21 (stereo not given in full) | active: 31.6 µM | –
Cc1ccc(-c2nnc(NC(=O)c3ccco3)s2)cc1 | inconclusive: 31.6 µM [inhibitor, single point] | –

Source: PubChem BioAssay AID504332 (National Center for Advancing Translational Sciences (NCATS), 2011)
